# Laboratory results as given in the supplement of paper PMC8728848.
# Some of the results follow.
# B1: B1257 (Bifidobacterium sp) (protein)
# chain: MKKSIRLVAAIAALAMTAGISACGSSTNGNQAKSDVTAQDVETALTDTSKNVELTVWAYSAKQMEPTVKAFEKKYPHIKINFVNTGAAGDHFTKFQNVVQAQKDIPDVVQMGANKFQQFAVSGALLNFANDSIEKAWSKLYTKTAWAQVHYAGGLYGAPQDATPLANYVRKDILDEHNLQVPESWEDIYNEGIKLHKEDSNKYMGILGSDISFFTNLYRSVGARLWKVNSVDDVELTMNSGKAKEFTEFLQKCLKDGVLEGGTVFTDEFNRSINDGRYATFINENWMGNTYKEQNPSLKGKMVVAAPPSWKGQPYQSSSVGSMMSVSAACPKEKQAAALAFINWLDSDKDAIQSWQDTNNGNFFMAASVYQDDENQRNKKETDGYYANDDVNAVYFDSMDKVNTDWEYLPFMSQVEVVFNDVIVPQMNENGDLVGAMAKAQQELKTYAKDNGFKVTTDAD
# Assays:
# Test in all cases: glycan array binding signal (z-score within array); higher = stronger binding
# Conditions in all cases: glycan notation: IUPAC condensed, linker removed
# [1] = target: Fuc(a1-2)Gal(b1-4)GlcNAc(b1-3)Gal(b1-4)GlcNAc(b1-3)Gal(b1-4)GlcNAc
# Outline: (§1)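 Glycan array data were curated from 3228 arrays in the Consortium for Functional Glycomics database and kept only where the protein sequence was available. Glycan names were converted to IUPAC-condensed notation, and columns mapping to the same glycan were averaged. The binding signal is a within-array Z-score, averaged across arrays of the same protein sequence at different concentrations or buffers and across linkers. Negative Z-scores can be read as non-binding.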
# [2] = target: Fuc(a1-2)Gal(b1-4)GlcNAc(b1-3)GalNAc
# Outline: as §1
# [3] = target: Fuc(a1-2)Gal(b1-4)GlcNAc(b1-3)[Fuc(a1-2)Gal(b1-4)GlcNAc(b1-6)]GalNAc
# Outline: as §1
# [4] = target: Fuc(a1-2)Gal(b1-4)GlcNAc(b1-3)[Fuc(a1-3)[Gal(b1-4)]GlcNAc(b1-6)]Gal(b1-4)Glc
# Outline: as §1
# [5] = target: Fuc(a1-2)Gal(b1-4)GlcNAc(b1-6)GalNAc
# Outline: as §1
# [6] = target: Fuc(a1-2)Gal(b1-4)GlcNAc6S
# Outline: as §1
# [7] = target: Fuc(a1-2)Gal(b1-4)[Fuc(a1-3)]GlcNAc
# Outline: as §1
# [8] = target: Fuc(a1-2)Gal(b1-4)[Fuc(a1-3)]GlcNAc(b1-2)Man(a1-3)[Fuc(a1-2)Gal(b1-4)[Fuc(a1-3)]GlcNAc(b1-2)Man(a1-6)]Man(b1-4)GlcNAc(b1-4)[Fuc(a1-6)]GlcNAc
# Outline: as §1
# [9] = target: Fuc(a1-2)Gal(b1-4)[Fuc(a1-3)]GlcNAc(b1-2)[Fuc(a1-2)Gal(b1-4)[Fuc(a1-3)]GlcNAc(b1-4)]Man(a1-3)[Fuc(a1-2)Gal(b1-4)[Fuc(a1-3)]GlcNAc(b1-2)Man(a1-6)]Man(b1-4)GlcNAc(b1-4)GlcNAc
# Outline: as §1
# [10] = target: Fuc(a1-2)Gal(b1-4)[Fuc(a1-3)]GlcNAc(b1-3)Gal(b1-4)[Fuc(a1-3)]GlcNAc
# Outline: as §1
# [11] = target: Fuc(a1-2)Gal(b1-4)[Fuc(a1-3)]GlcNAc(b1-3)Gal(b1-4)[Fuc(a1-3)]GlcNAc(b1-3)Gal(b1-4)[Fuc(a1-3)]GlcNAc
# Outline: as §1
# [12] = target: Fuc(a1-2)Gal(b1-4)[Fuc(a1-3)]GlcNAc(b1-3)GalNAc
# Outline: as §1
# [13] = target: Fuc(a1-2)Gal(b1-4)[Fuc(a1-3)]GlcNAc(b1-3)[Neu5Ac(a2-6)Gal(b1-4)GlcNAc(b1-6)]Gal(b1-4)Glc
# Outline: as §1
# [14] = target: Fuc(a1-2)Gal3S(b1-4)GlcNAc
# Outline: as §1
# [15] = target: Fuc(a1-2)Gal6S(b1-3)GlcNAc
# Outline: as §1
# [16] = target: Fuc(a1-2)Gal6S(b1-3)GlcNAc6S
# Outline: as §1
# Fuc(a1-2)Gal6S(b1-4)Glc = target: Fuc(a1-2)Gal6S(b1-4)Glc
# Outline: as §1
# [17] = target: Fuc(a1-2)Gal6S(b1-4)Glc6S
# Outline: as §1
# Fuc(a1-2)[Gal(a1-3)]Gal = target: Fuc(a1-2)[Gal(a1-3)]Gal
# Outline: as §1
# [18] = target: Fuc(a1-2)[Gal(a1-3)]Gal(b1-3)GalNAc
# Outline: as §1
# [19] = target: Fuc(a1-2)[Gal(a1-3)]Gal(b1-3)GalNAc(b1-3)Gal(a1-4)Gal(b1-4)Glc
# Outline: as §1
# [20] = target: Fuc(a1-2)[Gal(a1-3)]Gal(b1-3)GlcNAc
# Outline: as §1
# [21] = target: Fuc(a1-2)[Gal(a1-3)]Gal(b1-3)GlcNAc(b1-2)Man(a1-3)[Fuc(a1-2)[Gal(a1-3)]Gal(b1-3)GlcNAc(b1-2)Man(a1-6)]Man(b1-4)GlcNAc(b1-4)GlcNAc
# Outline: as §1
# [22] = target: Fuc(a1-2)[Gal(a1-3)]Gal(b1-3)GlcNAc(b1-2)Man(a1-3)[Fuc(a1-2)[Gal(a1-3)]Gal(b1-3)GlcNAc(b1-2)Man(a1-6)]Man(b1-4)GlcNAc(b1-4)[Fuc(a1-6)]GlcNAc
# Outline: as §1
# [23] = target: Fuc(a1-2)[Gal(a1-3)]Gal(b1-3)GlcNAc(b1-3)GalNAc
# Outline: as §1
# [24] = target: Fuc(a1-2)[Gal(a1-3)]Gal(b1-3)GlcNAc(b1-6)GalNAc
# Outline: as §1
# [25] = target: Fuc(a1-2)[Gal(a1-3)]Gal(b1-4)Glc
# Outline: as §1
# [26] = target: Fuc(a1-2)[Gal(a1-3)]Gal(b1-4)GlcNAc
# Outline: as §1
# [27] = target: Fuc(a1-2)[Gal(a1-3)]Gal(b1-4)GlcNAc(b1-2)Man
# Outline: as §1
# [28] = target: Fuc(a1-2)[Gal(a1-3)]Gal(b1-4)GlcNAc(b1-2)Man(a1-3)[Fuc(a1-2)[Gal(a1-3)]Gal(b1-4)GlcNAc(b1-2)Man(a1-6)]Man(b1-4)GlcNAc(b1-4)GlcNAc
# Outline: as §1
binder,measurement,setting,value
B1,glycan array binding signal (z-score),[1],0.071
same,glycan array binding signal (z-score),[2],0.181
same,glycan array binding signal (z-score),[3],-0.107
same,glycan array binding signal (z-score),[4],-0.058
same,glycan array binding signal (z-score),[5],0.043
same,glycan array binding signal (z-score),[6],-0.173
same,glycan array binding signal (z-score),[7],-0.084
same,glycan array binding signal (z-score),[8],-0.051
same,glycan array binding signal (z-score),[9],0.025
same,glycan array binding signal (z-score),[10],-0.093
same,glycan array binding signal (z-score),[11],0.052
same,glycan array binding signal (z-score),[12],0.086
same,glycan array binding signal (z-score),[13],-0.102
same,glycan array binding signal (z-score),[14],-0.141
same,glycan array binding signal (z-score),[15],-0.148
same,glycan array binding signal (z-score),[16],0.073
same,glycan array binding signal (z-score),Fuc(a1-2)Gal6S(b1-4)Glc,0.068
same,glycan array binding signal (z-score),[17],-0.07
same,glycan array binding signal (z-score),Fuc(a1-2)[Gal(a1-3)]Gal,-0.116
same,glycan array binding signal (z-score),[18],0.034
same,glycan array binding signal (z-score),[19],-0.091
same,glycan array binding signal (z-score),[20],-0.109
same,glycan array binding signal (z-score),[21],-0.062
same,glycan array binding signal (z-score),[22],-0.149
same,glycan array binding signal (z-score),[23],-0.1
same,glycan array binding signal (z-score),[24],0.048
same,glycan array binding signal (z-score),[25],-0.142
same,glycan array binding signal (z-score),[26],-0.093
same,glycan array binding signal (z-score),[27],0.231
same,glycan array binding signal (z-score),[28],-0.014
